# According to the supplement of paper PMC3334620:
# Over roughly 33,000 sequences, “E-score (-0.5 to 0.5)” has its median near -0.032; the highest 2% begin near 0.36. The list shows a part of the results.
# Molecular target: T1, Sko1 (UniProt Q02100)
# T1 sequence: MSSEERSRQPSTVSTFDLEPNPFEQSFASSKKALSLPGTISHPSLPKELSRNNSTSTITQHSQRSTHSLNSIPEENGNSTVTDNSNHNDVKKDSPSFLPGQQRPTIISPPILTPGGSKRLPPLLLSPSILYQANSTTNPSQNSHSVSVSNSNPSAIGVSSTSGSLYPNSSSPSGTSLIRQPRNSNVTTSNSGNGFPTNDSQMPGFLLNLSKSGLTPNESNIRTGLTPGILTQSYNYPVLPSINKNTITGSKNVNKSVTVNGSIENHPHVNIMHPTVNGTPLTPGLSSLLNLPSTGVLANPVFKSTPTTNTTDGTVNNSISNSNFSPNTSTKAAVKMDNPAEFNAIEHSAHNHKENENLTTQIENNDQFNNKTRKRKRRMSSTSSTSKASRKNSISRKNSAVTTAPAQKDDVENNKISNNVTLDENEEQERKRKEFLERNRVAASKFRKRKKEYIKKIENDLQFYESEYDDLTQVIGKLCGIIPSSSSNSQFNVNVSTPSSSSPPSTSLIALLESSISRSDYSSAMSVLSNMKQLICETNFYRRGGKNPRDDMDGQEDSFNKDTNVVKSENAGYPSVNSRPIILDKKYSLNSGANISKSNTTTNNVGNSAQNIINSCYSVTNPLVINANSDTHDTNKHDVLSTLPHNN
# Assay: PBM E-score (8-mer binding enrichment) (E-score (-0.5 to 0.5)); higher = stronger / more preferred TF binding; most listed sequences are background and not binding sites
# Conditions: protein concentration: 200 nM; construct: GST-full length
# Description: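 Universal 'all 10-mer' protein binding microarrays (Agilent AMADID 015681) probed with GST-tagged S. cerevisiae TFs (full-length or DBD) made by in vitro transcription/translation (PURExpress), about 100-200 nM. Bound TF was detected with fluorescent anti-GST. Each ungapped 8-mer (which stands for itself and its reverse complement) is scored by the PBM enrichment score (E-score), a modified Wilcoxon-Mann-Whitney statistic from -0.5 to +0.5, computed with the Universal PBM Analysis Suite. Scale: above 0.35 generally sequence-specific binding.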
row,Sequence,PBM E-score
1,CAGTATCA,0.0286
2,GACAGTCC,-0.239
3,ACGACAAG,-0.029
4,AAAGTGAC,0.224
5,CCTAGTCA,-0.192
6,CTTCGAGA,-0.0219
7,GTCAAAAA,0.247
8,GCTTGGCA,0.0666
9,TAAATATA,0.307
10,ACTGGCCT,-0.155
11,CGCTGATA,0.0496
12,ACGGCTGG,-0.389
13,CAGAGTAG,-0.152
14,ATGACATG,0.357
15,ACAGGCGG,-0.246
16,AGGTACGG,-0.27
17,ATGAACCA,0.134
18,ATCAGCAT,0.0822
19,AAAAGTTT,0.127
20,AAGTGGGC,0.043
21,ACGAGGAG,0.0533
22,CGACCTCA,0.0616

row,Sequence,PBM E-score
1,CCCTACGA,0.0951
2,CATGTGTC,0.1
3,CCCAGAGA,-0.134
4,AATATACC,0.0847
5,ACCATACC,-0.311
6,AGACTCGG,-0.305
7,ACTCCTAC,0.0364
8,GCATAAGC,0.0453
9,CTGCCCAC,-0.0529
10,ATACCAAG,0.102
11,ACGTCGAC,0.385
12,ACCACTCT,-0.169
13,CAACATTA,0.305
14,TGCGAGAA,-0.0362
15,CCTACTAA,-0.18
16,CGAGCCCG,-0.396
17,ACTTATCG,-0.196
18,CCGGTTCC,-0.26
19,CCGTGGAA,-0.0689
20,CCTGGCAG,-0.155
21,CCCTAACC,-0.178
22,TATGCTGA,0.222

row,Sequence,PBM E-score
1,ACTGCAAA,0.0484
2,AAGGAAGT,-0.193
3,ATCTTGTG,-0.00506
4,CCCCGGCC,-0.33
5,CATAACCG,-0.248
6,CGCCTCGA,-0.228
7,ATCCTCAG,-0.0982
8,AACAAAGC,0.19
9,AGTTTCAT,0.0561
10,ACGCAAAA,0.338
11,CCCCTACA,-0.184
12,GCAGCATA,-0.194
13,TACATTCA,0.0715
14,CCACCGCA,-0.187
15,CCTTCCGA,-0.184
16,GGTTTTAC,-0.11
17,TGACGACA,0.467
18,CCCGCGCA,-0.0135
19,TACAGACA,0.105
20,GCACTGGC,-0.199
21,AACGGTAG,-0.134
22,ATGCTTAC,-0.0592

row,Sequence,PBM E-score
1,GATCGTGC,0.016
2,CTTCGAAG,-0.208
3,GAAAAGCA,-0.104
4,CACCAGAC,0.0607
5,CCGCCGCC,-0.184
6,GCAAGCAA,-0.0211
7,AATTGGAG,-0.114
8,CAAATTTA,0.184
9,CATGCGAC,0.0353
10,ACTCGTCC,0.0764
11,GAGCACAA,-0.0865
12,GCGCGCGA,0.0725
13,ACAGATGT,-0.0192
14,ACTTGGAG,-0.203
15,AGTCGACT,0.213
16,ACTATGGC,-0.0461
17,AGGTTTGC,0.0181
18,GGTGCGCA,0.0886
19,ATTCGACG,0.107
20,ATACCCAC,-0.121
